Measurements as given in PubChem BioAssay AID1347073 (National Center for Advancing Translational Sciences (NCATS), 2019).
Hit rate of the full screen: of about 45,000 compounds, about 200 (0.44%) were called active. Roughly 7% stayed inconclusive and do not appear here. Calls come from the whole dose curve; as a rule, active = well fitted activation curve with a large enough effect; inconclusive = small, poorly fitted or top-dose-only effect; inactive = no such curve, though single readings can be large or run the other way. The list shows a part of the results.

experiment: qHTS of TDP-43 Inhibitors: NCGC Sytravon Library Screen; conditions: yeast TDP-43 toxicity rescue, BacTiter-Glo growth, 24 h; series mostly up to 46.1 µM; growth rescue (activation): at the top concentration; note: 0% is about no effect; nearly all actives have a fitted effect of over 55% in size
Method in brief: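 TDP-43-expressing yeast, pregrown in raffinose, seeded at OD600 0.02 in galactose medium with compound for 24 hr at 30 deg C. Growth read by BacTiter-Glo luminescence, so rescue of toxicity appears as activation.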

Structure (SMILES) | growth rescue (activation)
CCCCCCCc1nc2sc3c(c2c(=O)n1N)CC(C)(C)OC3 | inactive: -0.436%
O=c1nc2c(-c3cccc(Br)c3)n[nH]n2c2ccccc12 | inactive: -18.9%
Cc1nnc(SCC(=O)Nc2cccc(S(=O)(=O)NC3=NCCCCC3)c2)n1Cc1ccccc1 | inactive: -6.9%
Cn1c(=O)[nH]c(=O)c2c1nc1n2CC(O)CN1c1ccccc1 (centres undefined) | inactive: 8.93%
Cc1onc(-c2ccccc2)c1C(=O)N1CCC(C)(C(=O)O)C1 (centres undefined) | inactive: -1.92%
COc1ccc(NC(=O)Cn2cc(C(=O)C3CC3)c3ccccc32)cc1 | inactive: 7.31%
COc1ccc(C(C[N+](=O)[O-])c2c(C)[nH]n(-c3ccccc3)c2=O)cc1 (centres undefined) | inactive: 19.5%
COc1cccc(NC(=O)CN(C)CC(=O)Nc2cccc(C(F)(F)F)c2)c1 | inactive: 16.9%
COc1ccc(/C=C(\NC(=O)c2ccco2)C(=O)N2CCOCC2)cc1 | inactive: -26.5%
COc1ccc(CN(CC(=O)NC2CCCCC2)C(=O)CCC(=O)Nc2nccs2)cc1 | inactive: 0.645%
COC(=O)Oc1cncc(C(=O)O)c1 | inactive: 9.57%
CCOC(=O)Cc1csc(NC(=O)c2cc(C)cc(C)c2)n1 | inactive: -2.53%
Cc1ccc(NC(=S)c2ccc(N(C)C)cc2)cc1 | inactive: 13.1%
O=C1CSC(c2cn(-c3ccccc3)nc2-c2cc3ccccc3o2)N1Cc1ccccc1 (centres undefined) | inactive: 12.9%
COc1ccc(Nc2c([N+](=O)[O-])ccc3c2=NC2(CCCCC2)N=3)cc1 | inactive: 21.9%
CCC1C(c2ccccc2)N(C)C(c2ccccc2)CC1(O)c1ccccc1 (centres undefined) | inactive: 0.909%
N#C/C(=C/c1ccc(CNC(=O)C(=O)Nc2cc(Cl)cc(Cl)c2)o1)C(=O)NCc1cccnc1 | inactive: -6.48%
CC(C)NC(=O)COc1ccccc1C#N | inactive: -6.17%
COc1ccc(NC(=O)CCn2ccnc2)c(OC)c1 | inactive: -12.3%
CC1CC(C)CN(S(=O)(=O)c2ccc(C(=O)NNC(=O)c3ccccc3F)cc2)C1 (centres undefined) | inactive: -2.42%
Cn1cnnc1SCC(=O)NN(c1ccccc1)c1ccccc1 | inactive: 7.64%
CCCCCn1c(=NC(=O)c2cccnc2)c(C#N)cc2c(=O)n3cccc(C)c3nc21 | inactive: -9.04%
CCCCNC(=O)c1cc(C)nn1-c1ccccc1 | inactive: 2.03%
COc1ccc(C2C(C#N)=C(N)Nc3nc4ccccc4n32)cc1 (centres undefined) | inactive: 4.07%
O=C(COC(=O)c1ccco1)c1ccccc1 | inactive: -3.4%
NNC(=O)COc1ncn(-c2ccccc2)n1 | inactive: 14.2%
COc1cc(/C=C/C(=O)Nc2ccc(OC)c(S(=O)(=O)N3CCOCC3)c2)ccc1OCC#N | inactive: -28.5%

Structure (SMILES) | growth rescue (activation)
N=C1c2ccccc2CN1NC(=O)c1cccc(S(=O)(=O)N2CCCCC2)c1 | inactive: -11.8%
O=C(NCCc1nc2ccccc2[nH]1)/C(=C/c1ccco1)NC(=O)c1ccccc1Br | inactive: 12.8%
Cc1ccc(-n2c(C)cc(=O)cc2C)cc1[N+](=O)[O-] | inactive: 3.08%
Cc1ccc(OCC(=O)Nc2cnn(CCCC(=O)O)c2)c([N+](=O)[O-])c1 | inactive: 0.0254%
CC(C)C(NS(=O)(=O)c1ccccc1F)C(=O)N1CCc2ccccc2C1 (centres undefined) | inactive: 14.5%
CC1CN(C(=O)/C=C/c2ccccc2[N+](=O)[O-])CC(C)O1 (centres undefined) | inactive: -2.95%
Cc1ccc(C(=O)OCC(=O)N2CCOCC2)cc1 | inactive: 2.22%
Cc1nonc1NC(=O)CSc1nnc(N)s1 | inactive: -0.184%
Cc1nc2ccc([N+](=O)[O-])cc2[nH]1 | inactive: -0.0041%
COc1ccc(OCC(=O)NC(=S)Nc2ccc3c4c(cccc24)CC3)cc1 | inactive: 4.88%
COc1ccc(N(CC(=O)NCC2CCCO2)C(=O)CCC(=O)Nc2cc(C)on2)cc1OC (centres undefined) | inactive: -0.366%
Cc1ccc(NC(=O)CC2Nc3cccc4cccc(c34)NC2=O)cc1 (centres undefined) | inactive: -1.74%
COc1cccc(CNc2ccccn2)c1O | inactive: 2.94%
O=C(COc1ccccc1[N+](=O)[O-])NCC1(N2CCOCC2)CCCCC1 | inactive: 22.4%
NS(=O)(=O)c1cccc(NC(=O)CSc2nn(-c3ccccc3)c(=S)s2)c1 | inactive: 22.5%
CCN(CC)c1ccc(/C=N/NC(=O)c2nnn(-c3nonc3N)c2C(C)C)c(O)c1 | inactive: -23.5%
CSc1nc2c(c(-c3ccc(O)cc3)c1C#N)CCC2 | inactive: -1.65%
Cn1c(-c2ccccc2)c(C(=O)CC#N)c2ccccc21 | inactive: 18.1%
COc1ccc(CNC(=O)c2coc(=O)c3ccccc23)cc1 | inactive: 26.9%
O=C(c1cnn2c(C(F)F)cc(-c3ccccc3)nc12)N1CCc2ccccc21 | inactive: -0.146%
COc1ccc(C(=O)N2CCN(c3cnn(-c4ccccc4)c(=O)c3Cl)CC2)cc1 | inactive: 14.4%
Cc1ccc2nc(SCC(=O)Nc3cc(C)on3)c(C)cc2c1 | inactive: 9.05%
Nc1ncnc(Nc2cc(Cl)cc(Cl)c2)c1[N+](=O)[O-] | inactive: 9.93%
CCc1nc2c(OCc3ccc(S(C)(=O)=O)cc3)cccn2c1N(C)C(=O)c1ccccc1F | inactive: -14.7%
CCCCn1c(=O)[nH]c(=O)c2c1nc(-c1cc(Cl)c(OC)c(OC)c1)n2C | inactive: 12.3%
COc1ccccc1CN(C)C(=O)C(NC(=O)Cc1cccc2ccccc12)C(C)C (centres undefined) | inactive: 31.9%
CC(=O)c1ccc(NC(=O)CSc2n[nH]c(-c3cccnc3)n2)cc1 | inactive: -6.08%
